19 variants from the RNAGym collection of RNA variant scans (doi:10.1073/pnas.2313332121) can be followed below.

Sequences and labels used below:
B1: TPR 5TU (parent)
chain: GGAUCUUCUCGAUCUAACAAAAAAGACAAAUCUGCCACAAAGCUUGAGAGCAUCUUCGGAUGCAGAGGCGGCAGCCUUCGGUGGCGCGAUAGCGCCAACGUUCUCAACUAUGACACGCAAAACGCGUGCUCCGUUGAAUGGAGUUUAUCAUG

This sample is rich in variants without activity.

This data set covers variants of B1. In words: polymerase ribozyme fitness, log enrichment relative to wild type (log ratio); higher = more active; in vitro selection for triplet polymerase activity. The method, boiled down: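 Each subunit of a heterodimeric triplet polymerase ribozyme was mutagenized into a library by PCR, transcribed, and subjected to one round of in vitro selection, run in triplicate. Libraries were annealed with a biotinylated primer, the partner subunit and triplets, incubated frozen at −7 °C, and extended constructs were gel-excised, captured on streptavidin beads and recovered by RT-PCR. Input and output libraries were sequenced on Illumina, keeping genotypes with ≥10 input reads and ≥1 read per output. Fitness is log base 2 of genotype enrichment divided by wild-type enrichment, from inverse-variance-weighted replicate averages.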
With GGAUCUUCUCGAUCUAACAAAAAAGACAAAUCUGCCACAAAGCUUGAGAGCAUCUUCGGAAGCAGAGGCGGCAGCCUUCGGUGGCGCGAUAGCGCCAACGUUCUCAACUAUGACACGCAAAGCGCGUGCUCCGUUGAAUCGAGUUUAUCAUG [U61A A122G G140C], the “polymerase ribozyme fitness (log ratio)” value is ≤ -4.2. With GGAUCUUCUCGAUCUAACAAAAAAGACAAAUCUGCCACAAAGCUUGAGAGCAUCUUCGGAAGCAGAGGCGGCAGUCUUCGGUGGCGCGAUAGCGCCAACGUUCUCAACUAUGACACGCAAAACGAGUACUCCGUUGAAUGGUGUUUGUCAUG [U61A C75U C125A G128A A142U A147G], the “polymerase ribozyme fitness (log ratio)” value is ≤ -4.2.

As to GGAUCUUCUCGAUCUAACAAAAAAGACAAAUCUGCCACAAAGCUUGAGAGCAUCUUCGGAAGCAGAGGCGGCAGCCUUCGGUGGUGCGAUAGCGCCAACGUUCUCAAGUAUGACACGGAAAACGCGUGCUCCGUUGAAUGGCGCUUAUCAUG [U61A C85U C108G C118G A142C U144C], the “polymerase ribozyme fitness (log ratio)” value is ≤ -4.2.

For the variant GGAUCUUCUCGAUCUAACAAAAAAGACAAAUCUGCCACAAAGCUUGAGAGCAUCUUCGGUUGCAGAGGCGGCAGCCUUCGGUCGCGCGAUAGCGCCAACGUUCUCAACGAUGACACGCAAAACGCGUGCUCCGUUGCAUGGAGUUUAUCAUG [A60U G83C U109G A137C], the “polymerase ribozyme fitness (log ratio)” value was ≤ -4.2.

On to GGAUCUUCUCGAUCUAACAAAAAAGACAAAUCUGCCACAAAGCUUGAGAGCAUCUUCGGAAGCAGAGGCGGCAGCCUUCGGUGGCGCGAUAGCGCCAACGGUCUCAACUAUGACACGCAAAACGCGUGCUCCGUUGAAUGGAGUUUAUCAUG [U61A U101G], for which the “polymerase ribozyme fitness (log ratio)” value is -1.11. The same measure for GGAUCUUCUCGAUCUAACAAAAAAGACAAAUCUGCCACAAAGCUUGAGAGCAUCUUCGGACGCGGAGGCGGCAGCCUUCGGUGGCGCGAUAGCGCCAACGUUCUCAACUAUGACACGCAAAACGCGUGCUCCGUUGAAUGGAGUUUAUCAUG [U61C A64G]: ≤ -4.2. For the variant GGAUCUUCUCGAUCUAACAAAAAAGACAAAUCUGCCACAAAGCUUGAGAGCAUCUUCGGAAGCAGAGGCGGCAGCCUUCGGUGGCGCGAUAGCGCCAACGUUCUCAACUAUGACACGCAAAACGCGUGCUCCGUUGAAUGGAGCUUAUCAUG [U61A U144C], the “polymerase ribozyme fitness (log ratio)” value is -2.19. The same measure for GGAUCUUCUCGAUCUAACAAAAAAGACAAAUCUGCCACAAAGCUUGAGAGCAUCUUCGGAAGCAGAGGCGGCAGCCUACGGUGGCGCGAUAGCGUCAACGUUCUCAACUAUGACACGCAAAAAGCGUGCUCCGUUGAAUGGAGUUAAUCAUG [U61A U78A C95U C123A U146A]: ≤ -4.2; for GGAUCUUCUCGAUCUAACAAAAAAGACAAAUCUGCCACAAAGCUUGAGAGCAUCUUCGGAAGCAGAGGCGGCAGCCAUCGGUGGCGCGAUAGCGUCCACGUUCUCAACUAUGACACGCAAAACGCGUGCUCCGUUGAAAGGAGUUUAUCGUG [U61A U77A C95U A97C U139A A150G]: ≤ -4.2; for GGAUCUUCUCGAUCUAACAAAAAAGACAAAUCUGCCACAAAGCUUGAGAGCAUCUUCGGAAGCAGAGGCGGCAGCCUUCGGUGGUGAGAUAGCGCCAACGUUCUCAACUAUGACACGGAAAACGCGUGCUCCGAUGAAUGGAGUUUAUCAUG [U61A C85U C87A C118G U134A]: ≤ -4.2. As for GGAUCUUCUCGAUCUAACAAAAAAGACAAAUCUGCCACAAAGCUUGAGAGCAUCUUCGGAAGCAGAGGCGGCAGCCUUCGGUGGCGCGAUAGCGCCAACGUUCACAACUAUGACACGCAAAACGUGUGCUCCGUUGAAUGGAGUUUUUCAUG [U61A U104A C125U A147U], the “polymerase ribozyme fitness (log ratio)” value is ≤ -4.2. GGAUCUUCUCGAUCUAACAAAAAAGACAAAUCUGCCACAAAGCUUGAGAGCAUCUUCGGAAGCAGAGACGGCAGCCUUCGGUGGCGCGAUAGCGCCAACGUUCUCAACUAUGACACGCAAAACGCGUGCUCCGUUGAAUGGAGUUUAUCAUG [U61A G68A]: the “polymerase ribozyme fitness (log ratio)” value was ≤ -4.2.

Consider GGAUCUUCUCGAUCUAACAAAAAAGACAAAUCUGCCACAAAGCUUGAGAGCAUCUUCGGAAGCAGAAGCGGCAGCAUUCGAUGGAGCGAUAGCGCCAACGUUCUCAACUAUGACACGCAAAACGCGUGCUCCGUUGAAUGGAGUUUAUCAUG [U61A G67A C76A G81A C85A], for which the “polymerase ribozyme fitness (log ratio)” value was ≤ -4.2.

On to GGAUCUUCUCGAUCUAACAAAAAAGACAAAUCUGCCACAAAGCUUGAGAGCAUCUUCGGACGCAGAGGCGGCUGCCUUCGGUGGCGCGAUUGCGCCAACGUUCUCAACUAUGACACGCAAAACGCGUGCUCCGUUGAAUGGAGUUUAUCAUG [U61C A73U A91U], for which the “polymerase ribozyme fitness (log ratio)” value is ≤ -4.2. The same measure for GGAUCUUCUCGAUCUAACAAAAAAGACAAAUCUGCCACAAAGCUUGAGAGCAUCUUCGGAAGCAGAGGCGGCAGCCUUCGGUGGUGCGAUAGCGCCAACGUUCUCAACUAUGACACGCAAUACGCGUGCUCCGUUGAAUGGAGUUUAACAAG [U61A C85U A121U U148A U151A]: ≤ -4.2.

Regarding GGAUCUUCUCGAUCUAACAAAAAAGACAAAUCUGCCACAAAGCUUGAGAGCAUCUUCGGAAGCAGAGGCGGCAGCCUUCGGUGGCGCGAUAGCGCCAACGUUCUCAACUAUGACACGCAAAACGCGUGCUCCGUAGAAUGCAGUUUAGGAUG [U61A U135A G141C U148G C149G], the “polymerase ribozyme fitness (log ratio)” value was ≤ -4.2. GGAUCUUCUCGAUCUAACAAAAAAGACAAAUCUGCCACAAAGCUUGAGAGCAUCUUCGGAAGCAGAGGCGGUAGCCUUCGGUCGCGCGAUAGCGCCAACGUGCUCAACUAUGACACGCAAAACGCGUGCUCCGUUCAAUGGAGUUUAUCAUG [U61A C72U G83C U102G G136C]: the “polymerase ribozyme fitness (log ratio)” value is ≤ -4.2.

For the variant GGAUCUUCUCGAUCUAACAAAAAAGACAAAUCUGCCACAAAGCUUGAGAGCAUCUUCGGAAGCAGAGGCGGCAGCCUUCGGUGGCACGAUAGCGCCUAGGUUCUCAACUAUGUCACGCAAAACGCGUGCUCCGUUGAAUGGAGUUUAUCAUU [U61A G86A A97U C99G A113U G152U], the “polymerase ribozyme fitness (log ratio)” value was ≤ -4.2. The same measure for GGAUCUUCUCGAUCUAACAAAAAAGACAAAUCUGCCACAAAGCUUGAGAGCAUCUUCGGAAGCAGAGGCGGCAGCCUUCGGUGGCGUGAUAGCGCCAACGUUCUCAACUAUGACACGCAAAACGCGUGCUCCGUUGAAUGGAGUUUAUCAUG [U61A C87U]: -2.83.
